{"source": "the supplement of paper PMC11417369", "note": "Some of the results follow."}
{"system": "PfHDP1 homeodomain (GST-tagged)", "experiment": "gcPBM binding intensity (ln(normalized median fluorescence intensity)); higher = stronger DNA binding", "method_in_brief": "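The highest Masliner-normalised natural-log median intensity across replicate spots of either probe orientation is reported as binding intensity. GST-tagged P. falciparum DNA-binding domains expressed in E. coli were applied for 1 h to an Agilent 4 × 180k array of primer-extended double-stranded 36-bp intergenic genomic probes plus negative controls, and bound protein was detected with Alexa488 anti-GST antibody and scanned at 488 nm.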"}
{"sequence": "TTATTTATCAAAAAATGTACAAAAATATATAAACAA [XGTACX_site940]", "gcPBM binding intensity (ln)": 6.71}
{"sequence": "TTATATTTATTTAATGAACACACGATATATTATTTT [CACACA_site1601]", "gcPBM binding intensity (ln)": 6.34}
{"sequence": "TTTTAAAAAAGAAAAAAAAAGGATCAGAGAAATATT [GTGCAC_negctrl_site79]", "gcPBM binding intensity (ln)": 6.39}
{"sequence": "TTGTAGATATTTATATGTACGAATTTATAAATATAG [XGTACX_site3611]", "gcPBM binding intensity (ln)": 6.25}
{"sequence": "AAAAAAATTAATAATGTGCACTTTTTAGTATTTTTA [GTGCAC_site9744]", "gcPBM binding intensity (ln)": 9.48}
{"sequence": "AAATGTTAATTAAATGCATGTACAAAAGGAGCGAAT [TGCATGCA_site942]", "gcPBM binding intensity (ln)": 7.93}
{"sequence": "GCATAATATACTCTTACACACCATTTCTATATACAT [CACACA_site6799]", "gcPBM binding intensity (ln)": 7.23}
{"sequence": "TTTGTTAATTATAAATGTACATATTATATATATATA [XGTACX_site8870]", "gcPBM binding intensity (ln)": 8.42}
{"sequence": "TATATATATATGTATACACACATATGTATGTTATGT [CACACA_site4053]", "gcPBM binding intensity (ln)": 8.97}
{"sequence": "TTAAAACCAAAACACAGTACATATATATATATATAT [XGTACX_site5668]", "gcPBM binding intensity (ln)": 9.38}
{"sequence": "AAAATATATTATATATGTACATATTACGTTTTAATT [XGTACX_site2518]", "gcPBM binding intensity (ln)": 6.8}
{"sequence": "CAATTTTAAGTAATCAATTTTTTTAAAAAACACAAA [CACACA_negctrl_site961]", "gcPBM binding intensity (ln)": 6.35}
{"sequence": "AAATTAATTAAATATACACACATATATAAATATATA [CACACA_site391]", "gcPBM binding intensity (ln)": 6.29}
{"sequence": "ATATATATATAAAGTTGTACATTTTTTATTTTTTCA [XGTACX_site7847]", "gcPBM binding intensity (ln)": 8.52}
{"sequence": "TTGTTTTTAGTTTATACACACCATATTAATATAATG [CACACA_site7452]", "gcPBM binding intensity (ln)": 7.35}
{"sequence": "TTATATTATGGACACACACACAAAAAAAAAAAAAAA [CACACA_site7744]", "gcPBM binding intensity (ln)": 6.31}
{"sequence": "ATTTGGCATGGACACACACACACACCGACAGACATA [CACACA_site4491]", "gcPBM binding intensity (ln)": 6.55}
{"sequence": "TTGATGATATAAAAAAGTACTTATATTATATTATAT [XGTACX_site6492]", "gcPBM binding intensity (ln)": 6.48}
{"sequence": "TTTTGTAAAAAAAAAAAAAAAGGAAAATTAAAATAA [CACACA_negctrl_site803]", "gcPBM binding intensity (ln)": 5.9}
{"sequence": "TTTCCTATTTAATATAGTACATAAGAAATAATTTTA [XGTACX_site5952]", "gcPBM binding intensity (ln)": 6.07}
{"sequence": "TTGACACGTATATGCACACACCCGTAAGTGTCCATT [CACACA_site2764]", "gcPBM binding intensity (ln)": 10.2}
{"sequence": "ATATTTTATTATTGTTGTACTTTTTTTTGATTGTTT [XGTACX_site4090]", "gcPBM binding intensity (ln)": 6.52}
{"sequence": "TTTAATATTTTTCAATGTAGAAAGTTTGTCTGTTAT [CACACA_negctrl_site973]", "gcPBM binding intensity (ln)": 6.11}
{"sequence": "AGTTATAAACATATGTGTACTTATAAAAACATATAG [XGTACX_site3268]", "gcPBM binding intensity (ln)": 6.53}
{"sequence": "TCACACATATATTCATGTACATATTAATATTTCCAT [XGTACX_site5387]", "gcPBM binding intensity (ln)": 6.85}
{"sequence": "TTTTTTATGAACACGTCACACATCATTAAAATGTTT [CACACA_site5934]", "gcPBM binding intensity (ln)": 6.37}
{"sequence": "AATATTATAATATAAACACACAAAATTCAATTATAT [CACACA_site3789]", "gcPBM binding intensity (ln)": 6.53}
{"sequence": "AACGTTCATATTTCCACACACAAAAAATAAATATAA [CACACA_site3344]", "gcPBM binding intensity (ln)": 6.91}
{"sequence": "TTAATATTAATATATTGTACATATATGCACATATTT [XGTACX_site6569]", "gcPBM binding intensity (ln)": 9.73}
{"sequence": "AAAAATAAAGGGCGAAAAAAAAAAAAAAAAAAAAAA [GTGCAC_negctrl_site671]", "gcPBM binding intensity (ln)": 6.28}
{"sequence": "CTTGTATTTAAACACACACACACTTTCTTTTTTTAA [CACACA_site5133]", "gcPBM binding intensity (ln)": 6.76}
{"sequence": "ATATTTCATCTAGCTACACACATATAACAAATTACT [CACACA_site7843]", "gcPBM binding intensity (ln)": 7.11}
{"sequence": "TACATAAAAATATCACGTACATATAATCATATACTA [XGTACX_site3505]", "gcPBM binding intensity (ln)": 6.32}
{"sequence": "ACCTTTGATATATACACACACATAAAAAAAATATAT [CACACA_site6952]", "gcPBM binding intensity (ln)": 7.99}
{"sequence": "TTCTTTTTCCAATTTGCACACCACAAAATTATATAT [CACACA_site2909]", "gcPBM binding intensity (ln)": 10.6}
{"sequence": "ATTAATAATATTCCTTGTACATGATTTTTCTAAATA [XGTACX_site7099]", "gcPBM binding intensity (ln)": 6.93}
{"sequence": "TATAAATATAAATACACACACACATCAATACAGATA [CACACA_site5850]", "gcPBM binding intensity (ln)": 6.87}
{"sequence": "AAAAAAAAAAAAAAAACACACATACACCCCCACCCA [CACACA_site9117]", "gcPBM binding intensity (ln)": 7.9}
{"sequence": "TATAATAATGCCTTTACATGCAATAATAAAGAAATA [TGCATGCA_site631]", "gcPBM binding intensity (ln)": 6.31}
{"sequence": "TCTTTTGAACAAATTTGTACGTATATAAAAATATTT [XGTACX_site6547]", "gcPBM binding intensity (ln)": 6.79}
{"sequence": "AATGAATTAATAGCTACACACGGTAACATAATAACT [CACACA_site851]", "gcPBM binding intensity (ln)": 6.37}
{"sequence": "TGCACAGACGGACACACACACAACTAAAAAATAATG [CACACA_site5424]", "gcPBM binding intensity (ln)": 6.84}
{"sequence": "TGTGTTAATAGAAAAAGTACATATACATATATATAT [XGTACX_site4951]", "gcPBM binding intensity (ln)": 8.48}
{"sequence": "TTAAATATAAAAAGTAGTACATTTATATTTACCATA [XGTACX_site2962]", "gcPBM binding intensity (ln)": 6.19}
